Data: patent US12221481B2, “CD19 binding molecules and uses thereof” (Novartis AG, priority 2019, dated 2025)
Read-outs that look alike come from different tables or passages of the source.

Experiments:
[1] = tested on: CD8+CD28+ and CD8+CD28- T cells; assay: Proliferation, cytokine production and surface phenotype of sorted CD28+ / CD28- CD8 T cells co-cultured with Nalm6 (Example 26); assay type: cell-based, human
Text: Nalm-6 target cells stably expressing firefly luciferase were irradiated at 50Gy on the day of the assay set up. Peripheral blood mononuclear cells (PBMCs) previously isolated from buffy coat donors (Bern Hospital) and cryopreserved were thawed and total T cells were isolated by negative selection using the human Pan T cell Isolation Kit (Miltenyi Biotec, Cat #130-096-535) following the manufacturer's protocol. The positive fraction (called PBMCs-T cells depleted) was irradiated at 50Gy in order to be used as feeder for the co-culture. From the negative fraction, enriched in total T cells, CD8^+ T cells were isolated by an additional step of negative selection using EasySep™ Human CD8^+ T Cell Enrichment Kit (Stem Cell, Cat #19053). Untouched CD8^+ cells were then stained with an anti-CD28 antibody (Biolegend, Cat #302922) and sorted with a FACSAria (BD) according to CD28 expression: CD8^+CD28^+ and CD8^+CD28^−. The purity of sorted cells was >95%.
After sorting, T cells were labelled with 2.5 μM of Carboxyfluorescein succinimidyl ester (CFSE, Thermo Scientific, Cat #C34554) following the manufacturer's protocol.
Each T cell subset (either CD8^+CD28^+ or CD8^+CD28^−) of CFSE-labelled T cells was co-cultured with Nalm6 target cells, seeding 50,000 T cells and 50,000 target cells to achieve an effector: target (E:T) ratio of 1:1. Cells were diluted and co-plated to obtain additional final E:T ratio of 1:3 or 1:6.
In the co-culture conditions where the presence of irradiated PBMCs-T cells depleted was required, 10,000 PBMCs were plated to obtain a 5:1 ratio, effector T cells: PBMCs.
The T cells-tumor cells co-culture was plated in a Costar 96 well plate (Corning, Cat #3585) in T Cell Media [RPMI-1640 (ThermoFisher Scientific, Cat #21875-034); 10% FBS HyClone (GE healthcare, Cat #SH30070.03); 1% Non Essential Amino Acids (Thermo Fisher Scientific, Cat #11140-050); 1% Pen/Strep (Thermo Fisher Scientific, Cat #15140122); 1% HEPES (Lonza, Cat #17737E); Sodium Pyruvate (Thermo Fisher Scientific, Cat #11360-070); 50 μM Beta-mercaptoethanol (Thermo Fisher Scientific, Cat #31350)].
CD3hi TSP1 and CD3hi BSP1, diluted in T cell Media, were added to the cells at different concentrations (1 nM, 0.1 nM and 0.01 nM) and incubated in a 5% CO2, 37° C. incubator for 72 hrs. In order to be able to detect intracellular cytokines production, plates were incubated for the last 1.5 hrs of the co-culture with PMA (50 ng/ml; SIGMA, Cat #P1585)). Ionomycin (500 μg/ml; Calbiochem, Cat #407950); brefeldin (10 μg/ml; Cell Signaling, Cat #9972) was also added for the last 1.5 hours of the incubation.
At the end of the 72 hrs, cells were harvested and then stained with a viability die, Zombie Aqua (Biolegend, Cat #423102) by incubating at room temperature, for 10 mins. Cells were then washed twice using FACS Buffer and stained with antibodies against surface markers: anti-CD2 (Biolegend, Cat #300214), anti-CD28 (Biolegend, Cat #302922), anti-CCR7 (Biolegend, Cat #353226), and anti-CD45RO (Biolegend, Cat #304216). Intracellular IFN-g and granzyme B (GzB) were detected by treating T cells with BD cytofix cytoperm kit (BD, Cat #555028) according to the manufacturer's instructions, and staining them with anti-IFNg (Biolegend, Cat #502509) and anti-granzyme B antibodies (BD, Cat #560213). Samples were washed with FACS buffer and acquired on a BD LSR Fortessa (BD). Analysis was performed with FLOWJO software (version 10.6.0; Tree Star Inc.).

[2] = tested on: OCI-LY-19 diffuse large B-cell lymphoma (DLBCL) tumor; settings: mouse, in vivo, iv

B1: CD3hi TSP1: Trispecific binding molecule: NEG258-based CD19 Fab, CD3hi anti-CD3 scFv, CD58 IgV domain, knob-into-hole silenced hIgG1 Fc (antibody)
heavy: QVQLVQSGAEVKKPGASVKVSCKASGYTFTTYWIQWVRQAPGQRLEWMGAVYPGDADTRYTQKFQGRVTLTADRSASTAYMELSSLRSEDTAVYYCGRDAGLEYYALDYWGQGTLVTVSSASTKGPSVFPLAPSSKSTSGGTAALGCLVKDYFPEPVTVSWNSGALTSGVHTFPAVLQSSGLYSLSSVVTVPSSSLGTQTYICNVNHKPSNTKVDKRVEPKSCGGGGSGGGGSEVQLVESGGGLVQPGGSLKLSCAASGFTFNTYAMNWVRQASGKGLEWVGRIRSKYNNYATYYADSVKDRFTISRDDSKSTLYLQMNSLKTEDTAVYYCVRHGNFGNSYVSWFAYWGQGTLVTVSSGGGGSGGGGSGGGGSGGGGSQAVVTQEPSLTVSPGGTVTLTCRSSTGAVTTSNYANWVQQKPGQAPRGLIGGTNKRAPWTPARFSGSLLGDKAALTLSGAQPEDEAEYFCALWYSNLWVFGGGTKLTVLGGGGSDKTHTCPPCPAPELLGGPSVFLFPPKPKDTLMISRTPEVTCVVVAVSHEDPEVKFNWYVDGVEVHNAKTKPREEQYASTYRVVSVLTVLHQDWLNGKEYKCKVSNKALAAPIEKTISKAKGQPREPQVCTLPPSREEMTKNQVSLSCAVKGFYPSDIAVEWESNGQPENNYKTTPPVLDSDGSFFLVSKLTVDKSRWQQGNVFSCSVMHEALHNHYTQKSLSLSPGK
light: EIVMTQSPATLSVSPGERATLSCRASQDVGTAVAWYQQKPGQAPRLLIYWASTRHTGIPARFSGSGSGTEFTLTISSLQSEDFAVYFCQQYANFPLYTFGQGTKLEIKRTVAAPSVFIFPPSDEQLKSGTASVVCLLNNFYPREAKVQWKVDNALQSGNSQESVTEQDSKDSTYSLSSTLTLSKADYEKHKVYACEVTHQGLSSPVTKSFNRGEC
chain: SQQIYGVVYGNVTFHVPSNVPLKEVLWKKQKDKVAELENSEFRAFSSFKNRVYLDTVSGSLTIYNLTSSDEDEYEMESPNITDTMKFFLYVLESGGGGSDKTHTCPPCPAPELLGGPSVFLFPPKPKDTLMISRTPEVTCVVVAVSHEDPEVKFNWYVDGVEVHNAKTKPREEQYASTYRVVSVLTVLHQDWLNGKEYKCKVSNKALAAPIEKTISKAKGQPREPQVYTLPPCREEMTKNQVSLWCLVKGFYPSDIAVEWESNGQPENNYKTTPPVLDSDGSFFLYSKLTVDKSRWQQGNVFSCSVMHEALHNHYTQKSLSLSPGK
[1]
  proportion (%) of CD28- T cells IFNg+GzB+: more pronounced
[1]; 0.1 nM, presence and absence of irradiated PBMCs, CD28- and CD28+ subsets
  GzB+ T cells and IFNg+ T cells, as MFI: clear increase
[1]; 1 nM, in particular CD28- T cells with irradiated PBMCs
  median fluorescence intensity (MFI) for IFNg and GzB: clear shift in the median fluorescence intensity (MFI) for both cytokines
[1]; 72 hrs treatment
  T cell surface phenotype (CD45RO, CCR7) of CD28- cells: re-aquired a central memory/effector memory phenotype
[1]; both concentrations tested, different E:T ratios
  proliferation, potency compared between constructs: more potent in inducing proliferation of both T cells subsets compared to CD3hi BSP1
[1]; co-culture with Nalm6, 72 hrs, with or without irradiated PBMCs
  proliferation of CD28+ and CD28- T cells (CFSE dilution): induced proliferation

B2: CD3med TSP1: NEG258-based TBM with CD3med anti-CD3 scFv and CD58 IgV CD2-binding arm (antibody)
heavy: QVQLVQSGAEVKKPGASVKVSCKASGYTFTTYWIQWVRQAPGQRLEWMGAVYPGDADTRYTQKFQGRVTLTADRSASTAYMELSSLRSEDTAVYYCGRDAGLEYYALDYWGQGTLVTVSSASTKGPSVFPLAPSSKSTSGGTAALGCLVKDYFPEPVTVSWNSGALTSGVHTFPAVLQSSGLYSLSSVVTVPSSSLGTQTYICNVNHKPSNTKVDKRVEPKSCGGGGSGGGGSEVQLVESGGGLVQPGGSLKLSCAASGFTFNTYAMNWVRQASGKGLEWVGRIRSKYNNYATYYADSVKDRFTISRDDSKNTAYLQMNSLKTEDTAVYYCVRHGNFGNSYVSWFAHWGQGTLVTVSSGGGGSGGGGSGGGGSGGGGSQAVVTQEPSLTVSPGGTVTLTCGSSTGAVTSSNYANWVQQKPGQAPRGLIGGTNKRAPWTPARFSGSLLGGKAALTLSGAQPEDEAEYYCALWYSNLWVFGGGTKLTVLGGGGSDKTHTCPPCPAPELLGGPSVFLFPPKPKDTLMISRTPEVTCVVVAVSHEDPEVKFNWYVDGVEVHNAKTKPREEQYASTYRVVSVLTVLHQDWLNGKEYKCKVSNKALAAPIEKTISKAKGQPREPQVCTLPPSREEMTKNQVSLSCAVKGFYPSDIAVEWESNGQPENNYKTTPPVLDSDGSFFLVSKLTVDKSRWQQGNVFSCSVMHEALHNHYTQKSLSLSPGK
light: EIVMTQSPATLSVSPGERATLSCRASQDVGTAVAWYQQKPGQAPRLLIYWASTRHTGIPARFSGSGSGTEFTLTISSLQSEDFAVYFCQQYANFPLYTFGQGTKLEIKRTVAAPSVFIFPPSDEQLKSGTASVVCLLNNFYPREAKVQWKVDNALQSGNSQESVTEQDSKDSTYSLSSTLTLSKADYEKHKVYACEVTHQGLSSPVTKSFNRGEC
chain: SQQIYGVVYGNVTFHVPSNVPLKEVLWKKQKDKVAELENSEFRAFSSFKNRVYLDTVSGSLTIYNLTSSDEDEYEMESPNITDTMKFFLYVLESGGGGSDKTHTCPPCPAPELLGGPSVFLFPPKPKDTLMISRTPEVTCVVVAVSHEDPEVKFNWYVDGVEVHNAKTKPREEQYASTYRVVSVLTVLHQDWLNGKEYKCKVSNKALAAPIEKTISKAKGQPREPQVYTLPPCREEMTKNQVSLWCLVKGFYPSDIAVEWESNGQPENNYKTTPPVLDSDGSFFLYSKLTVDKSRWQQGNVFSCSVMHEALHNHYTQKSLSLSPGK
[2]; 0.003 mg/kg
  Survival: 8/8
[2]; 0.01 mg/kg
  Survival: 8/8
[2]; 0.03 mg/kg
  Survival: 8/8
[2]; 0.1 mg/kg
  Survival: 8/8
[2]; 0.3 mg/kg
  Survival: 8/8
